Experimental data taken from publication PMC7060200, “Selective Binding of HSC70 and its Co-Chaperones to Structural Hotspots on CFTR” (Scientific Reports, 2020).
These are yes or no findings as the source states them, for the method shown. Some binding calls cover weakened binding; strength is not graded here.

Chains of the proteins cited; added tags and fusions are not shown. Lines headed by an entry give the natural chain unless they say otherwise; changes in a name come on top.
UniProt P13569: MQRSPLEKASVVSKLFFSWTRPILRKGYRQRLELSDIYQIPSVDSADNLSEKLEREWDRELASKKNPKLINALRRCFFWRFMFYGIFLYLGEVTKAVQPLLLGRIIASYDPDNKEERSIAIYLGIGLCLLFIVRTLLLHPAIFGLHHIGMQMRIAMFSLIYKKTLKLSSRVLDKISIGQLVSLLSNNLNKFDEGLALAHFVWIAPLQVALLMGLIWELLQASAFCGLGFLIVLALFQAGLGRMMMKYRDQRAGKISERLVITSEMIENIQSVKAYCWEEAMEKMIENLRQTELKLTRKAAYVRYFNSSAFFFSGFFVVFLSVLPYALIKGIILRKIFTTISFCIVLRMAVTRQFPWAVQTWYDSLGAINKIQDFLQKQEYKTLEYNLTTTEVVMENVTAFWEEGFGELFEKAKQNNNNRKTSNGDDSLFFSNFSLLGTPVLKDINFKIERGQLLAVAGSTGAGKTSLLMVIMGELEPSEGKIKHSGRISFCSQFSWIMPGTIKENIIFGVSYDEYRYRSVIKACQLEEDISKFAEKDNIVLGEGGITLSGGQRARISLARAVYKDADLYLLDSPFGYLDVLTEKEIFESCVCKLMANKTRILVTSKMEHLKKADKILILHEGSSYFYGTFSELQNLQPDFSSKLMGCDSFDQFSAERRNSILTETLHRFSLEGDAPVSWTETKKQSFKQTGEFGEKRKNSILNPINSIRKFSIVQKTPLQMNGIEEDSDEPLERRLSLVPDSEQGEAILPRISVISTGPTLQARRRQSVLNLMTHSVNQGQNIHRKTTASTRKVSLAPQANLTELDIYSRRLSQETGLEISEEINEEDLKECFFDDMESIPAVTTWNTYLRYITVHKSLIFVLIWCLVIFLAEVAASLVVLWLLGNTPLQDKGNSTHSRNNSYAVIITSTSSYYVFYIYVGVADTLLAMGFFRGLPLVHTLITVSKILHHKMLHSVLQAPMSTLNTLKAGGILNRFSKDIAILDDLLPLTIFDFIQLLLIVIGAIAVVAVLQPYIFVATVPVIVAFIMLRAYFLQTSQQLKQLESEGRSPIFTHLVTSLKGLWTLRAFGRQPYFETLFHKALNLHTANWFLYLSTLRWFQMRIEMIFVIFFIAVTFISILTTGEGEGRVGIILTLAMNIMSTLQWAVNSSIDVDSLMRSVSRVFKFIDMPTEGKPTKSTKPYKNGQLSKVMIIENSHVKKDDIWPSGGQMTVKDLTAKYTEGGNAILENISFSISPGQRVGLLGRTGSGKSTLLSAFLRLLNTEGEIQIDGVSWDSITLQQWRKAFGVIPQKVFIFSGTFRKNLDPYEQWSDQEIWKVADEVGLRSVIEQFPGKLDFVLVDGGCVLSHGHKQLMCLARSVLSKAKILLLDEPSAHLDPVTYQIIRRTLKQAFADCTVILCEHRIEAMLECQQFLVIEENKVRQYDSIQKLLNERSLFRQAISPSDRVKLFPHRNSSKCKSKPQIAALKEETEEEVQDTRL
UniProt P11142: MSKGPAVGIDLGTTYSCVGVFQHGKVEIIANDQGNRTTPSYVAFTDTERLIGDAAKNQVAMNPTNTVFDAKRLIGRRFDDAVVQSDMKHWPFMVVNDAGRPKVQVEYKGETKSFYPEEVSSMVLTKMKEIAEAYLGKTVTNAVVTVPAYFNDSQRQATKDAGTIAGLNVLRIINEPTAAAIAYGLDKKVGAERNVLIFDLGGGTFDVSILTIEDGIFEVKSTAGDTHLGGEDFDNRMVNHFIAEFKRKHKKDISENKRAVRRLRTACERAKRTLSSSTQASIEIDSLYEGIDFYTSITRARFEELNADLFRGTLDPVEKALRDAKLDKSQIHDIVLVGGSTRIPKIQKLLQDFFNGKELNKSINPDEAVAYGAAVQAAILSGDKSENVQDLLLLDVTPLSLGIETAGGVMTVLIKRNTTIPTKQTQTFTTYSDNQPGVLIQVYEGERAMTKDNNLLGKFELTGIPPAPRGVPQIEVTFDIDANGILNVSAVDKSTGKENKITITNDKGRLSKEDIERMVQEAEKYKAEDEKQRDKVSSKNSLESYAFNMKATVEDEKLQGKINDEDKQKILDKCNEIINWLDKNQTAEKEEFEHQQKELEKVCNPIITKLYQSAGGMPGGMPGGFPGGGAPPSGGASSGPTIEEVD
UniProt O60884: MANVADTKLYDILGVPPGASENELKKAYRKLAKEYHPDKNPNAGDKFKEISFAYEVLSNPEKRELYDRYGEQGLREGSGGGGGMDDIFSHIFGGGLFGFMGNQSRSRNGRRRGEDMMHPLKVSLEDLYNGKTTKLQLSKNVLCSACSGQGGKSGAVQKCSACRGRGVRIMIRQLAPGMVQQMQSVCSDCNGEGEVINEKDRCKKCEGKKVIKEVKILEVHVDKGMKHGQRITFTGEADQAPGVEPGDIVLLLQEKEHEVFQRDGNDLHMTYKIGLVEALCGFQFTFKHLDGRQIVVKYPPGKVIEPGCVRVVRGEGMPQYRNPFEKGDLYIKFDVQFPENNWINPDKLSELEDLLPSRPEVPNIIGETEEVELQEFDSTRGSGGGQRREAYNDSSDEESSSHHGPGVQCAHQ
UniProt P08659: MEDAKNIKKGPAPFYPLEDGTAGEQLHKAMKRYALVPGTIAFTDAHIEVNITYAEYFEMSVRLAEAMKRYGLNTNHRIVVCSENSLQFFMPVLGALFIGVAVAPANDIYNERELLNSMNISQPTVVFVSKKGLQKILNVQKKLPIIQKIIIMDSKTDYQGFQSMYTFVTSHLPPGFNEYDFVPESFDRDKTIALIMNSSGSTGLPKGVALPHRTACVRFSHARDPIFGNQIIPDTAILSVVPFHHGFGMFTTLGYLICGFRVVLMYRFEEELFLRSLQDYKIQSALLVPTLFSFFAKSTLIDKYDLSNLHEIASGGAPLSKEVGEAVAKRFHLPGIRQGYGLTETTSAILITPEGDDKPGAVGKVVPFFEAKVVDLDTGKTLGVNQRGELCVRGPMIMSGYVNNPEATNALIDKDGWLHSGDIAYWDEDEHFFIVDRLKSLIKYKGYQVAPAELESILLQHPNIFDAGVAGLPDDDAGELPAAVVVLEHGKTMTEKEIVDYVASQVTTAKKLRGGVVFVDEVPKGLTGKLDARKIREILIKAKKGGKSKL

Columns and labels:
[1] = biological target: T1, CFTR peptide 493-L, biotinylated (library form) (UniProt P13569); assay: ELISA; library screen: biotinylated 15-mer peptides (5 µM) immobilised on streptavidin plates; 2 μM His-tagged chaperone, 45 min at room temperature; HSC70 in buffer G with 1 mM ATP, DJA1 and DJA2 in buffer H without nucleotide; detection by His-Probe-HRP; both purified
T1 sequence (peptide, N-terminal biotin): GSGSGRISFCSQFSWIMPG

[2] = biological target: T2, CFTR peptide 488-L, biotinylated (library form) (UniProt P13569); assay: as above
T2 sequence (peptide, N-terminal biotin): GSGSKIKHSGRISFCSQFS

[3] = biological target: T3, CFTR peptide 1293-L, biotinylated (library form) (UniProt P13569); assay: ELISA; titration of increasing concentrations of chaperone on immobilised biotinylated peptide; HSC70 with ATP; apparent Kd from linearised binding curves; both purified
T3 sequence (peptide, N-terminal biotin): GSGSFGVIPQKVFIFSGTF

Flag-tagged HSC70 = Flag-tagged HSC70 (UniProt P11142); assay: co-IP; refolding reactions (4 μM Flag-HSC70, 4 μM DJA2, ATP, denatured luciferase, with or without 100 μM peptide) stopped at 0 or 15 min with apyrase at 4 °C; FLAG-M2 magnetic beads; Western blot for luciferase; both purified

| binding [1] | binding [2] | binding [3] | binding (Flag-tagged HSC70) | Substance |
| --- | --- | --- | --- | --- |
| no binding (tested: 2 μM) | no binding (tested: 2 μM) | – | – | DNAJA1 (DJA1), His-tagged (from UniProt P31689 1-397) |
| no binding (tested: 2 μM) | no binding (tested: 2 μM) | – | – | DNAJA2 (DJA2), His-tagged (from UniProt O60884 1-412) |
| no binding (tested: 2 μM) | no binding (tested: 2 μM) | binds | – | HSC70 (HSPA8), His-tagged (from UniProt P11142 1-646) |
| – | – | – | binds | luciferase, guanidine denatured (from UniProt P08659 1-550) (enzyme) |
